These results are taken from patent US7160888B2, “[1,8]naphthyridin-2-ones and related compounds for the treatment of schizophrenia” (Warner Lambert Company LLC, priority 2003, dated 2007).

As a reminder, the Ki is the equilibrium dissociation constant of an inhibitor or competing ligand from its target.

The target of this assay is dopamine D2 receptor (Homo sapiens, UniProt P14416). As to conditions: read-out: D2 Ki; Table 1; 0.4 nM [3H]spiperone, CHO-hD2L membranes.
Sequence of UniProt P14416 (P14416 whole entry): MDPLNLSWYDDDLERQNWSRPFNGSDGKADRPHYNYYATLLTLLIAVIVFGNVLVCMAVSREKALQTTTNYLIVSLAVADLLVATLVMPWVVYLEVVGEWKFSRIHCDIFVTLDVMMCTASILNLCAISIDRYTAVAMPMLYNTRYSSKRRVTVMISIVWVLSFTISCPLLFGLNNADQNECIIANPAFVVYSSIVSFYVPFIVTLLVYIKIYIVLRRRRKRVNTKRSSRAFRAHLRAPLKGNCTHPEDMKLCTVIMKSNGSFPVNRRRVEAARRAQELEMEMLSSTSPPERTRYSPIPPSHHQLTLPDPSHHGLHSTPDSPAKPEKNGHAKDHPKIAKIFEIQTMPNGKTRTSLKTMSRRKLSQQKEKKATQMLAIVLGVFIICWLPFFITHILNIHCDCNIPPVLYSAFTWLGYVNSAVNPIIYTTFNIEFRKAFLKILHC

On to `O=C1COc2ccc(OCCCCN3CCN(c4cccc5c4CCCC5)CC3)nc2N1` [Example G8, 6-{4-[4-(5,6,7.8-Tetrahydro-naphthalen-1-yl)-piperazin-1-yl]-butoxy}-4H-pyrido[3,2-b][1,4]oxazin-3-one], for which the Ki was found to be 1 nM.
